Data taken from PubChem BioAssay AID1240 (Sanford-Burnham Center for Chemical Genomics, 2008).
The whole screen tested about 50,000 compounds, of which about 800 (1.6%) showed an effect of 50% or more. The list shows a part of the results.

These compounds were tested against Bcl-2-like protein 10 (Homo sapiens) (UniProt Q9HD36) (assay: Phenotype converters, Bcl-B/TR3 peptide binding displacement, primary biochemical FP (AID 1240;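 note: 0% = Bcl-B with tracer peptide and DMSO and 100% = tracer peptide lacking Bcl-B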)). Conditions: GST-Bcl-B / FITC-TR3 peptide fluorescence polarization; stronger effect = higher value; compound at 3.75 mg/L.
Chain of UniProt Q9HD36 (Q9HD36 whole entry, looked up): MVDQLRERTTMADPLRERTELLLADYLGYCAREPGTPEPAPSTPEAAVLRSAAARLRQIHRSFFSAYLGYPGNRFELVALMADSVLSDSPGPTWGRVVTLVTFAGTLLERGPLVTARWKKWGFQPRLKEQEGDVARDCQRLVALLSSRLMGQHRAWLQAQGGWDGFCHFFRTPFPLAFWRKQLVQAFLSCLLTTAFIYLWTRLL

Row | Structure (SMILES) | displacement [%]
1 | O=C(CSc1nnc(SCC(=O)c2ccc(F)cc2)n1-c1ccccc1)c1ccc(F)cc1 | 12.2
2 | Cc1ccc(-c2nc(N/N=C/c3cccnc3)c3ccccc3n2)cc1 | 6.5
3 | CCOc1cc(OCC)cc(C(=O)Nc2ccc3oc(-c4cccc(F)c4)nc3c2)c1 | 6.3
4 | CC(=O)N(CCCN(C)C)Cc1ccc2c(c1)OCO2 | -5.3
5 | CCNC(=S)N1CCN(c2ccccc2OC)CC1 | 14.8
6 | CCOC(=O)C1=C(C)N=c2s/c(=C\c3ccc([N+](=O)[O-])cc3)c(=O)n2C1c1ccc(Cl)cc1 (stereo not given) | 9.2
7 | Cn1c(=O)c2c(nc3n2CC(=O)N3c2cccc(Cl)c2)n(C)c1=O | -5.8
8 | CC(=O)c1ccc(NC(=O)CSCC(=O)Nc2ccccc2)cc1 | 7.5
9 | COc1ccc(NC(=O)C23CCC4CC(CC(C4)C2)C3)cc1 | 11.3
10 | CC(=C/c1ccccc1)/C=N/NC(=O)CSc1n[nH]c(=O)[nH]c1=O | -1.5
11 | COc1ccccc1OCCOc1ccccc1/C=N/n1cnnc1 | 5.1
12 | O=C(NC1CCCCC1)Oc1ccc2oc(=O)sc2c1 | 11.5
13 | CCOc1ccc(/C=C2\C(=O)NC(=S)N(c3cccc(Br)c3)C2=O)cc1Cl | 13.4
14 | O=C(c1ccccc1)c1ccccc1N/C=C/[N+](=O)[O-] | 15.1
15 | CC1=C(C)CC2C(=O)N(c3ccc(C(C)C)cc3)C(=O)C2C1 (stereo not given) | -9.6
16 | Cc1ccc(NC(=O)CN(c2cc(Cl)cc(Cl)c2)S(C)(=O)=O)c(C)c1 | 24.8
17 | O=[N+]([O-])c1ccccc1N1CCCCC1 | -12.9
18 | COc1ccc(C(=O)CC(Sc2ccccc2NC(C)=O)c2cccc(Br)c2)cc1 (stereo not given) | 3.3
19 | COc1ccc(N2C(=O)c3ccc(-c4nc5ccccc5c(=O)o4)cc3C2=O)cc1OC(C)=O | -6
20 | CCC1=NN(C(=O)c2cccc(O)c2)C(O)(c2ccncc2)C1 (stereo not given) | 8.1
21 | O=C(Nc1ccc(NS(=O)(=O)c2cc(Cl)c(Cl)cc2Cl)cc1)c1ccccc1 | -12.6
22 | Brc1ccc(/C=N/n2c(-c3ccccc3)nnc2-c2ccccc2)cc1 | 31.4
23 | O=C(CN(c1cccc(Cl)c1)S(=O)(=O)c1ccccc1)Nc1cccc2cccnc12 | -6.8
24 | CC(=O)NC1=NN(C(C)=O)C(c2ccc(Br)cc2)S1 (stereo not given) | -6.3

Row | Structure (SMILES) | displacement [%]
25 | CCc1cccc(C)c1NC(=O)c1ccc(OC)c([N+](=O)[O-])c1 | -10.9
26 | CCN(CC)C(=O)CN(c1cccc(Br)c1)S(=O)(=O)c1ccccc1 | 7.1
27 | O=C(Nc1c(-c2ccccc2)nc2ccc(Cl)cn12)c1ccc(Br)cc1 | 9.6
28 | COC(=O)/C(O)=C/C(=O)c1cccs1 | 16.4
29 | CC(=O)c1c(-c2ccccc2)c2cc([N+](=O)[O-])ccc2n1C | -5.3
30 | O=C(COc1ccc(Br)cc1)NNC(=O)Nc1ccccc1 | 4.2
31 | O=C(Cn1nnc2ccccc21)NNC(=S)Nc1ccccc1 | -26.5
32 | O=C(c1ccccc1)N1CCCC2CCCC21 (stereo not given) | 9.3
33 | COC(=O)C1=CN(Cc2cccs2)C=C(C(=O)OC)C1c1ccc(C)s1 | 34.6
34 | CC(C)OC(=O)c1c(NC(=O)c2cccs2)sc2c1CCCC2 | 5.8
35 | O=C(Nc1cccc(Cl)c1)Nc1nnc(/C=C/c2ccccc2Cl)s1 | 10
36 | CC(C)CC(=O)NS(=O)(=O)c1ccc(NC(=O)c2ccccc2Cl)cc1 | 17.9
37 | CCC(Oc1ccccc1)C(=O)NC(C)c1ccccc1 (stereo not given) | -18.9
38 | Cc1ccccc1NC(=O)CN(c1cccc(Br)c1)S(=O)(=O)c1ccccc1 | -4
39 | Cc1cccc(C(=O)Nc2ccc(I)cc2Cl)c1 | -3.9
40 | C=CCNC1=C(Cl)C(=O)N(c2ccc(C)cc2C)C1=O | 13.7
41 | COc1ccc(C(=O)Nc2sc3c(c2C(=O)OC(C)C)CCCC3)cc1OC | 12
42 | CCOc1ccc(N(CC(=O)NCCc2ccccc2)S(=O)(=O)c2ccc(Br)cc2)cc1 | 10.5
43 | COc1ccc(C(=O)N/N=C/c2ccc(SC)cc2)cc1 | -4.2
44 | O=C1C(=O)N(Cc2cccnc2)C(c2ccc(Cl)cc2Cl)/C1=C(\O)c1ccccc1 (stereo not given) | 1.7
45 | Cc1ccccc1/C=C1\C(=O)NC(=O)N(c2ccc(Br)cc2)C1=O | 4.6
46 | CS(=O)(=O)N(CC(=O)N1CCOCC1)c1ccc(Cl)cc1 | 13.1
47 | CS(=O)(=O)N(CC(=O)O)c1ccccc1 | 0.7
48 | CN1C(=O)/C(=C2\SC(=S)N(C(Cc3ccccc3)C(=O)O)C2=O)c2ccccc21 (stereo not given) | 0.9

Row | Structure (SMILES) | displacement [%]
49 | Cc1[nH]c2ccc(Br)cc2c1CC(=O)N/N=C/c1ccc(Cl)c(Cl)c1 | 5.1
50 | O=C(CN1C(=O)/C(=C\c2ccccc2F)SC1=S)Nc1cccc(C(=O)O)c1 | 26.4
51 | COc1ccc(N=CC2=C(O)CC(C)(C)CC2=O)cc1OC | -7.2
52 | COc1cc(C=C2C(=O)NC(=O)NC2=O)cc(Cl)c1OCCOc1ccccc1C | 9
53 | O=C(/C=C/c1ccc(-c2cc(Cl)ccc2Cl)o1)c1ccc([N+](=O)[O-])cc1 | -8.1
54 | O=C(Nc1ccc2oc(-c3ccc(Cl)cc3Cl)nc2c1)c1ccc(Br)o1 | -0.5
55 | COc1ccccc1NC(=O)CN1C(=O)/C(=C\c2cc(OC)c(OC)c(OC)c2)SC1=S | 36.7
56 | CC1(C)N=C(N)NC(Nc2ccccc2)=N1 | 0.2
57 | COc1ccc(CC(=O)NCc2ccccc2Cl)cc1OC | -1.3
58 | CCOC(=O)c1c(NC(=O)CC2SC(N)=NC2=O)sc(C)c1C (stereo not given) | -19.8
59 | CCOCCOC(=O)C1=C(C)NC(=O)NC1c1ccccc1OCc1ccccc1 (stereo not given) | -0.7
60 | COc1ccc(-c2cc(C(=O)N/N=C(\C)c3ccc(N)cc3)[nH]n2)cc1 | -1
61 | O=C1OC(c2ccc(F)cc2)=N/C1=C\c1cccc(Br)c1 | 74.2
62 | O=C(NCCc1ccccc1Cl)C1CC(=O)N(c2ccccc2)C1 (stereo not given) | 13.8
63 | Cc1cc(C)n(-c2cc(Nc3cccc(F)c3)ncn2)n1 | -6.3
64 | CCN(CC)CCCCOc1cccc(OC)c1 | -10.2
65 | C/C(=N/NC(=O)c1cncc(Br)c1)c1ccc2ccccc2c1 | 2.4
66 | CC(=O)c1cc(F)c(N2CCN(C(=O)c3ccccc3Br)CC2)cc1C | -5.4
67 | Cc1cc(C)cc(N=Cc2ccc(OC3CSC3)cc2)c1 | 4.5
68 | COC(=O)c1ccc(NC(=O)C(=O)NCCCN(C)C)cc1 | -2.4
69 | CC(=O)NC1=NN(C(C)=O)C(C)(c2cccc([N+](=O)[O-])c2)S1 (stereo not given) | -5.9
70 | COc1ccc(Cl)cc1C(=O)NN=C1CCN(C)CC1 | 7.1
